The source of these data is paper PMC3017775.

No constants are given. Whether binding was seen depends on the method and setting. Some results given as binding are weak or reduced against the parent protein; the word gives no strength.

One test has as its target T1, GDEF2 (Gerbera hybrida) (UniProt Q9ZS27).
T1 sequence: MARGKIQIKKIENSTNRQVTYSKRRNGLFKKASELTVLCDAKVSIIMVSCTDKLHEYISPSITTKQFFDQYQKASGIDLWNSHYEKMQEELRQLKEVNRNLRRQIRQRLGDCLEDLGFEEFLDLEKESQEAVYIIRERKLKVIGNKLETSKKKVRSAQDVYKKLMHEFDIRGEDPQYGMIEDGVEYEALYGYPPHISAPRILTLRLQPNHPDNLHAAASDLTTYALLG
The experiment in a line: two-hybrid; binding domain (pDEST32) and activation domain (pDEST22) fusions combined in both directions by mating PJ69-4A and PJ69-4α; selection on SD -Leu -Trp -Ade and SD -Leu -Trp -His + 1, 5 or 10 mM 3-AT; +22°C for 5 days; positive if either direction grew.

In a further test the target is GSQUA1 (Gerbera hybrida) (UniProt Q9ZS25). The description is as above.
The target of another test is T2, GGLO1 (Gerbera hybrida) (UniProt Q9ZS26).
T2 sequence: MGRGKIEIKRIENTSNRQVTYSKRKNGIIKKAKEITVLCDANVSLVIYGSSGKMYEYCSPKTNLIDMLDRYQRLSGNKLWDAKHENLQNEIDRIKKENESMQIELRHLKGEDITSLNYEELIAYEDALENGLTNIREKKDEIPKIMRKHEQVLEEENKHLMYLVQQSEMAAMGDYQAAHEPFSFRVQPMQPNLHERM
The test is described as above.

The target in a further test is T3, GDEF1 (Gerbera hybrida) (UniProt Q9ZS28).
T3 sequence: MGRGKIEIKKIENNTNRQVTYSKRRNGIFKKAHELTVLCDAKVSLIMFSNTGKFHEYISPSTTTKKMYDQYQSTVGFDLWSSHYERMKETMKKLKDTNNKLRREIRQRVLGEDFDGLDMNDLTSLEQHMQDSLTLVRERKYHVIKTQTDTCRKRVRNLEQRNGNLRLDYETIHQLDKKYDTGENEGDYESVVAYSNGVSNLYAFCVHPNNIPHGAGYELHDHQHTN
The description is as above.

In a further test the target is GAGA1 (Gerbera hybrida) (UniProt Q9ZS30). The description is as above.
The target in another test is GAGA2 (Gerbera hybrida) (UniProt Q9ZS29). Described as above.
The target of the next test is GSQUA5 (Gerbera hybrida) (UniProt D2T2G2). The description is as above.
For another test, the target named is GRCD2 (Gerbera hybrida) (UniProt Q6EUV7). The description is as above.
Another test deals with T4, GSQUA3 (Gerbera hybrida) (UniProt D2T2G1).
T4 sequence: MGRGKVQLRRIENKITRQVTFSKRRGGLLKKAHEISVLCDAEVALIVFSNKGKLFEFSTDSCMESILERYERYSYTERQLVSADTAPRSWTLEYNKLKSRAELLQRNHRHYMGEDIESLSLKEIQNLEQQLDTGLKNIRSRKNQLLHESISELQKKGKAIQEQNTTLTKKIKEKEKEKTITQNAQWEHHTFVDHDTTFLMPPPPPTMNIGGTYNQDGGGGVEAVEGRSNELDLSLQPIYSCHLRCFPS
Described as above.

In test [1] the target is T5, GGLO1/GDEF2 dimer (Gerbera hybrida) (UniProt Q9ZS27+Q9ZS26).
T5 sequence 1: T1 sequence
T5 sequence 2: T2 sequence
The test is described as follows: yeast three-hybrid; third protein expressed unfused from pARC351 beside binding domain (pDEST32) and activation domain (pDEST22) fusions; selection on SD -Leu -Trp -Ura -Ade and SD -Leu -Trp -Ura -His with 1, 5 and 10 mM, or 10 and 25 mM 3-AT; +22°C for 7 days.

For test [2], the target named is T6, GGLO1/GDEF1 dimer (Gerbera hybrida) (UniProt Q9ZS28+Q9ZS26).
T6 sequence 1: T3 sequence
T6 sequence 2: T2 sequence
The description is as above.

Another test has as its target T7, GSQUA2 (Gerbera hybrida) (UniProt D2T2G0).
T7 sequence: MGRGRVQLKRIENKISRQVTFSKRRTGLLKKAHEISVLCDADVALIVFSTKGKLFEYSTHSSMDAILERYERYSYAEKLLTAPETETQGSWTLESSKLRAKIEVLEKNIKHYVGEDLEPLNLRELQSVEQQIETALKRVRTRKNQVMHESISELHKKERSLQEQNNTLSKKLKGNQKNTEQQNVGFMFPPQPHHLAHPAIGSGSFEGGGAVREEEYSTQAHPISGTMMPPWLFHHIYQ
The experiment in a line: two-hybrid; binding domain (pDEST32) and activation domain (pDEST22) fusions combined in both directions by mating PJ69-4A and PJ69-4α; selection on SD -Leu -Trp -Ade and SD -Leu -Trp -His + 1, 5 or 10 mM 3-AT; +22°C for 5 days; positive if either direction grew.

B1: GGLO1 (protein, UniProt Q9ZS26 1-197)
chain: T2 sequence
On to B1, for which the binding result in the test with GDEF2 (Gerbera hybrida) is “binds”; in the test with GSQUA1 (Gerbera hybrida), “no binding”; with GGLO1 (Gerbera hybrida) it was “no binding”; with GDEF1 (Gerbera hybrida), “binds”; with GAGA1 (Gerbera hybrida) it was “no binding”; in the test with GAGA2 (Gerbera hybrida), “no binding”. For the same molecule, the binding entry with GSQUA5 (Gerbera hybrida) and with GRCD2 (Gerbera hybrida) was “no binding” throughout.

B2: GSQUA3 (protein, UniProt D2T2G1 1-248)
chain: T4 sequence
For the molecule B2, the binding entry was “no binding” with GSQUA3 (Gerbera hybrida), “no binding” in the test with GSQUA5 (Gerbera hybrida), “binds” in [1] and “no binding” in test [2].

B3: GDEF2 (protein, UniProt Q9ZS27 1-228)
chain: T1 sequence
Consider B3, for which the binding entry with GDEF2 (Gerbera hybrida), with GAGA1 (Gerbera hybrida), in the test with GAGA2 (Gerbera hybrida), with GSQUA3 (Gerbera hybrida) and with GRCD2 (Gerbera hybrida) was “no binding” each time.

B4: GDEF1 (protein, UniProt Q9ZS28 1-226)
chain: T3 sequence
On to B4, for which the binding entry with GDEF2 (Gerbera hybrida), with GSQUA1 (Gerbera hybrida), with GDEF1 (Gerbera hybrida), in the test with GAGA1 (Gerbera hybrida), with GAGA2 (Gerbera hybrida) and with GSQUA3 (Gerbera hybrida) was “no binding” throughout. Besides, the binding result with GSQUA2 (Gerbera hybrida), with GSQUA5 (Gerbera hybrida) and with GRCD2 (Gerbera hybrida) was “no binding” throughout.

B5: GSQUA2 (protein, UniProt D2T2G0 1-238)
chain: T7 sequence
Regarding B5, the binding result with GSQUA3 (Gerbera hybrida) is “no binding”; with GSQUA2 (Gerbera hybrida), “no binding”; with GSQUA5 (Gerbera hybrida), “no binding”; in test [1], “binds”; in test [2], “no binding”.
